# Results as given in the supplement of paper PMC8728848.
# The list shows a part of the results.
# B1: CVN-E41G (protein)
# chain: MHHHHHHENLYFQSGNFSQACYNSAIQGSVLTSTCIRTNGGYNTSSIDLNSVIGNVDGSLKWQGSNFIETCRNTQLAGSSELAAECKTRAQQFVSTKINLDDHIAAIDGTLKYE
# Legend:
# Assay in all cases: glycan array binding signal (z-score within array); higher = stronger binding
# Conditions in all cases: glycan notation: IUPAC condensed, linker removed; mutation: E41G
# [1] = target: Gal(b1-4)GlcNAc(b1-6)Gal(b1-4)GlcNAc
# Outline: (§1)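 Glycan array data came from 3228 arrays in the Consortium for Functional Glycomics database, and only arrays with an available protein sequence were kept. Glycan names were put into IUPAC-condensed notation, and columns mapping to the same glycan were averaged. The binding signal is a within-array Z-score, averaged across arrays of one protein sequence run at different concentrations or buffers and across linkers. A negative Z-score can be read as non-binding.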
# [2] = target: Gal(b1-4)GlcNAc(b1-6)GalNAc
# Outline: as §1
# [3] = target: Gal(b1-4)GlcNAc(b1-6)[Gal(b1-3)]GalNAc
# Outline: as §1
# [4] = target: Gal(b1-4)GlcNAc(b1-6)[Gal(b1-4)GlcNAc(b1-3)]GalNAc
# Outline: as §1
# Gal(b1-4)GlcNAc6P = target: Gal(b1-4)GlcNAc6P
# Outline: as §1
# Gal(b1-6)Gal = target: Gal(b1-6)Gal
# Outline: as §1
# Gal3S(b1-3)GalNAc = target: Gal3S(b1-3)GalNAc
# Outline: as §1
# Gal3S(b1-3)GlcNAc = target: Gal3S(b1-3)GlcNAc
# Outline: as §1
# [5] = target: Gal3S(b1-3)[Fuc(a1-4)]GlcNAc
# Outline: as §1
# Gal3S(b1-4)Glc = target: Gal3S(b1-4)Glc
# Outline: as §1
# Gal3S(b1-4)Glc6S = target: Gal3S(b1-4)Glc6S
# Outline: as §1
# Gal3S(b1-4)GlcNAc = target: Gal3S(b1-4)GlcNAc
# Outline: as §1
# [6] = target: Gal3S(b1-4)[Fuc(a1-3)]Glc6S
# Outline: as §1
# [7] = target: Gal3S(b1-4)[Fuc(a1-3)]GlcNAc
# Outline: as §1
# [8] = target: Gal3S(b1-4)[Fuc(a1-3)]GlcNAc6S
# Outline: as §1
# Gal3S4S(b1-4)GlcNAc = target: Gal3S4S(b1-4)GlcNAc
# Outline: as §1
# Gal3S6S(b1-4)GlcNAc = target: Gal3S6S(b1-4)GlcNAc
# Outline: as §1
# Gal3S6S(b1-4)GlcNAc6S = target: Gal3S6S(b1-4)GlcNAc6S
# Outline: as §1
# Gal4S(b1-4)GlcNAc = target: Gal4S(b1-4)GlcNAc
# Outline: as §1
# Gal4S6S(b1-4)GlcNAc = target: Gal4S6S(b1-4)GlcNAc
# Outline: as §1
# Gal6P(b1-4)GlcNAc = target: Gal6P(b1-4)GlcNAc
# Outline: as §1
# Gal6S(b1-3)GlcNAc = target: Gal6S(b1-3)GlcNAc
# Outline: as §1
# Gal6S(b1-3)GlcNAc6S = target: Gal6S(b1-3)GlcNAc6S
# Outline: as §1
binder,measurement,setting,value
B1,glycan array binding signal (z-score),[1],-0.173
same,glycan array binding signal (z-score),[2],-0.14
same,glycan array binding signal (z-score),[3],-0.057
same,glycan array binding signal (z-score),[4],-0.157
same,glycan array binding signal (z-score),Gal(b1-4)GlcNAc6P,-0.122
same,glycan array binding signal (z-score),Gal(b1-6)Gal,-0.136
same,glycan array binding signal (z-score),Gal3S(b1-3)GalNAc,-0.179
same,glycan array binding signal (z-score),Gal3S(b1-3)GlcNAc,-0.179
same,glycan array binding signal (z-score),[5],-0.134
same,glycan array binding signal (z-score),Gal3S(b1-4)Glc,-0.161
same,glycan array binding signal (z-score),Gal3S(b1-4)Glc6S,-0.146
same,glycan array binding signal (z-score),Gal3S(b1-4)GlcNAc,-0.147
same,glycan array binding signal (z-score),[6],-0.103
same,glycan array binding signal (z-score),[7],-0.162
same,glycan array binding signal (z-score),[8],-0.148
same,glycan array binding signal (z-score),Gal3S4S(b1-4)GlcNAc,-0.183
same,glycan array binding signal (z-score),Gal3S6S(b1-4)GlcNAc,-0.185
same,glycan array binding signal (z-score),Gal3S6S(b1-4)GlcNAc6S,-0.172
same,glycan array binding signal (z-score),Gal4S(b1-4)GlcNAc,-0.189
same,glycan array binding signal (z-score),Gal4S6S(b1-4)GlcNAc,-0.19
same,glycan array binding signal (z-score),Gal6P(b1-4)GlcNAc,-0.147
same,glycan array binding signal (z-score),Gal6S(b1-3)GlcNAc,-0.171
same,glycan array binding signal (z-score),Gal6S(b1-3)GlcNAc6S,-0.147
